Measurements from article PMC3804274.
These are yes or no findings as the source states them, for the method shown. In cells and extracts the contact can be indirect. Some binding calls cover weakened binding; strength is not graded here. Blank lines part the entries; values can stand above or below the substance they belong to.

By UniProt entry, the sequences of proteins in these tests, tags left out. Where a name states a change or a piece, a line headed by the entry shows the natural chain unless it says otherwise. Chains listed by the source or under a name are the forms on record and can include a tag or linker. Residues count along the entry.
UniProt P60520: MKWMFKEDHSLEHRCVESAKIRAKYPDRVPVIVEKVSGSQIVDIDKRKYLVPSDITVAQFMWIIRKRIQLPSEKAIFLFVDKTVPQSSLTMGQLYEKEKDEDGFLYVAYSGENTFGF
UniProt Q6P9H5: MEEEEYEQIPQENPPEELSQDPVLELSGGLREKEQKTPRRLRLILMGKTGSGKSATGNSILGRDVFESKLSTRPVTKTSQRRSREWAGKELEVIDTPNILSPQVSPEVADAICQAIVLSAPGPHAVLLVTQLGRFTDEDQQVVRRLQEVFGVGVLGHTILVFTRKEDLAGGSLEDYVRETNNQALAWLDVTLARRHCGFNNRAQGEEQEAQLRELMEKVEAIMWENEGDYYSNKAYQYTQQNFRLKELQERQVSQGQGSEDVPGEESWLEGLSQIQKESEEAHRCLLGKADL
biotGIMAP6 lacking the 10 terminal amino acid residues (amino acids 283-292): residues 1-282 of Q6P9H5
biotGIMAP6 lacking the C-terminal domain (amino acids 244-292): residues 1-243 of Q6P9H5
biotGIMAP6 lacking amino acids 1-36: residues 37-292 of Q6P9H5
biotGIMAP6 arginine-134 to alanine (Q6P9H5, form named): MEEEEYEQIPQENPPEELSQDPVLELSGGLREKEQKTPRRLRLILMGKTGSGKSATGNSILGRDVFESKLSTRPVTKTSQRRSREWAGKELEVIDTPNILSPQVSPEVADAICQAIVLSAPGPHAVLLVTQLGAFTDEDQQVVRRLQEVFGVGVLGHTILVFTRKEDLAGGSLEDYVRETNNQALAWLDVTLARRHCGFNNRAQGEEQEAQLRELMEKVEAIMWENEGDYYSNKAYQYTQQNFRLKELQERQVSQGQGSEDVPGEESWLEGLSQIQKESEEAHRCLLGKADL
UniProt Q8K349: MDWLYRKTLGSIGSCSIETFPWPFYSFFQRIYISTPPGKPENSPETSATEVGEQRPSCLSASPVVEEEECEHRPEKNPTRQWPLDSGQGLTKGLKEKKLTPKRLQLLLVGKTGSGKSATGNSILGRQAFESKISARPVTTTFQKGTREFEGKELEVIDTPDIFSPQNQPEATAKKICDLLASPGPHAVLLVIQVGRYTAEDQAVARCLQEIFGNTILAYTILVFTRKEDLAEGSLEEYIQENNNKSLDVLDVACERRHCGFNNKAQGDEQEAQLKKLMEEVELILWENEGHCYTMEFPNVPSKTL

What was measured:
[1] = target: biotGABARAPL2 (human GABARAPL2 in pcDNA3Biot1His6iresBirA), wild type (human) (UniProt P60520); test: pull-down; HEK293T co-transfected with a biotin-tagged bait (with BirA) and a myc- or HA-tagged prey; TX100 lysate; streptavidin-agarose, 4°C, 4 h; blot for the tag
biotGIMAP6 Y6A (human) = biotGIMAP6 Y6A (human) (UniProt Q6P9H5); test: pull-down; HEK293T transfected with biotin-tagged GIMAP6 or its mutants only; streptavidin-agarose 48 h after transfection; blot with MAC446 to GABARAPL2
[2] = target: biotGIMAP6 lacking amino acids 1-36 (human) (UniProt Q6P9H5); test: as above
biotGIMAP6 D167A (human) = biotGIMAP6 D167A (human) (UniProt Q6P9H5); test: as above
[3] = target: biotGIMAP6 lacking the 10 terminal amino acid residues (amino acids 283-292) (human) (UniProt Q6P9H5); test: as above
[4] = target: biotGIMAP6 lacking the C-terminal domain (amino acids 244-292) (human) (UniProt Q6P9H5); test: as above
biotGIMAP6 T76A (human) = biotGIMAP6 T76A (human) (UniProt Q6P9H5); test: as above
[5] = target: biotGIMAP6 arginine-134 to alanine (human) (UniProt Q6P9H5); test: as above
biotGIMAP6 I9A (human) = biotGIMAP6 I9A (human) (UniProt Q6P9H5); test: as above
[6] = target: biotinylated GABARAPL2 lacking the N-terminal 10 amino acids (human) (UniProt P60520); test: pull-down; HEK293T co-transfected with a biotin-tagged bait (with BirA) and a myc- or HA-tagged prey; TX100 lysate; streptavidin-agarose, 4°C, 4 h; blot for the tag
[7] = target: biotinylated GABARAPL2 G116A (human) (UniProt P60520); test: as above

- binding [1]: binds weakly
Substance: myc-tagged mouse GIMAP6 (from UniProt Q8K349 1-305)

- binding (biotGIMAP6 Y6A (human)): binds
- binding [2]: binds
- binding (biotGIMAP6 D167A (human)): binds
- binding [3]: no binding
- binding [4]: no binding
- binding (biotGIMAP6 T76A (human)): no binding
- binding [5]: binds
- binding (biotGIMAP6 I9A (human)): binds
Substance: GABARAPL2 of HEK293T cells detected with MAC446 (from UniProt P60520 1-117)

- binding [6]: no binding
- binding [7]: binds
Substance: myc-tagged human GIMAP6 (from UniProt Q6P9H5 1-292)
